Results published in PubChem BioAssay (Tox21).
This list was built around the results that the source calls inconclusive (neither active nor inactive); the mix of calls is not that of the screen. For some assays here: No potency is given beside an inconclusive call; the fits are too rough. Some compounds were tested as several samples or in several runs, with calls that do not always agree. Active and inactive are the calls of the source. Unless noted, the call rests on the fitted dose curve; in most records, active means well fitted curve in the direction sought with a large enough effect in the repeat runs; inconclusive means weak or mixed curves; inactive means no such curve, though single readings can be large; an effect the other way counts as inactive or inconclusive.

What was measured:
[1] = A CellTox Green Cytotoxicity Assay to monitor cytotoxicity in HEK293 cells - 16 hour (AID 1224888); further: nearly all actives have a fitted effect of over 35% in size; further: potency means the concentration at half of the fitted maximal effect; on activity change: on the % scale 0 is the no-effect control and ±100 the full control effect
Outline: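 Tox21 screen in HEK293: membrane-impermeant cyanine dye fluoresces on binding dead-cell DNA; compound pinned 5 h post-seeding, plates held at 37 C, signal read repeatedly through 40 h.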

[2] = qHTS RealTime-Glo MT Cell Viability Assay in HEK293 cells - 0 hour (AID 1224880); further: nearly all actives have a fitted effect of over 45% in size; further: potency means the concentration at half of the fitted maximal effect
Outline: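 HEK293 + NanoLuc + prosubstrate, 600 cells/well; 5 h, 37 C/5% CO2; compound 23 nL in DMSO by pintool; 37 C; luminescence read at 0, 8, 16, 24, 32 and 40 h time points.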

[3] = qHTS assay to identify small molecule antagonists of the progesterone receptor (PR) signaling pathway - cell viability counter screen (AID 1346798); further: nearly all actives have a fitted effect of over 50% in size; further: potency means the concentration at half of the fitted maximal effect
Outline: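 ATP content as viability readout: CellTiter-Glo luminescence, 30 min room temperature, in PR-UAS-bla HEK293T cells after 16 hr compound/R5020 treatment at 37C and 5% CO2.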

[4] = biological target: Estrogen receptor beta (Homo sapiens) (UniProt Q92731); assay: qHTS assay to identify small molecule agonists of the estrogen receptor beta (ER-beta) signaling pathway (AID 1259377; active means well fitted activation curve with a large enough effect in the signal ratio in the repeat runs, not every such curve was filed as active; inconclusive means weak or mixed curves, or effect the other way; the % refers to the signal ratio; further: on the % scale 0 is the no-effect control and ±100 the full control effect); details: ER-beta-UAS-bla HEK293T, beta-lactamase FRET ratio, 16 h; activation: at 92.4 µM (top of the series) unless noted
Outline: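 In HEK293T cells bearing a UAS-beta-lactamase reporter under ER-beta control, DMSO-delivered compounds were incubated for 16 hr at 37C. Activity was detected as fluorescence 2 hours after LiveBLAzer B/G FRET substrate addition.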

[5] = Caspase-3/7 induction in HepG2 cells by small molecules, qHTS cell viability counter screen (AID 1346981); further: nearly all actives have a fitted effect of over 30% in size; further: potency means the concentration at half of the fitted maximal effect
Outline: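 Treatment of HepG2 cells with DMSO-delivered compounds ran 16 hr at 37 C following a 5-hr pre-incubation of 2,000 cells/well. CellTiter-Fluor fluorescence, read after 1 hr, served as the viability measure in a qHTS format.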

[6] = qHTS assay to identify small molecule agonists of the farnesoid-X-receptor (FXR) signaling pathway - cell viability counter screen (AID 743218); details: FXR-bla HEK293T viability, CellTiter-Glo luminescence, 16 h; viability change, negative = cytotoxic: at 62.6 µM (top of the series) unless noted; further: nearly all actives have a fitted effect of over 45% in size; further: potency means the concentration at half of the fitted maximal effect
Outline: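 Same-well cytotoxicity check on FXR-UAS-bla HEK 293T cells: 5 h attachment, 16 h compound at 37 C, CellTiter-Glo luminescence read at room temperature after 30 min.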

[7] = biological target: Cytochrome P450 2D6 (Homo sapiens) (UniProt P10635); assay: Cytochrome P450 Family 2 Subfamily D Member 6 (CYP2D6) small molecule antagonists: luciferase reporter qHTS assay (AID 1671196); further: nearly all actives have a fitted effect of over 50% in size; further: potency means the concentration at half of the fitted maximal effect
Outline: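 Chemicals tested for interference with CYP2D6 activity; proluciferin substrate, NADPH regeneration, 1 h at room temperature, luminescent detection.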

[8] = qHTS assay to identify small molecule agonists of the vitamin D receptor (VDR) signaling pathway - cell viability counter screen (AID 743224); further: nearly all actives have a fitted effect of over 50% in size; further: potency means the concentration at half of the fitted maximal effect
Outline: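 Counter screen for cytotoxicity: VDR-bla cells at 2,000 cells/well, 16 h compound exposure, then CellTiter-Glo luminescence after the beta-lactamase measurement.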

[9] = qHTS assay to identify small molecule antagonists of the androgen receptor (AR) signaling pathway - cell viability counter screen (AID 743033; further: potency means the concentration at half of the fitted maximal effect; nearly all actives have a fitted effect of over 45% in size); details: AR-bla HEK293 viability, CellTiter-Glo luminescence, 16 h; activity change, negative = cytotoxicity: at 58.5 µM (top of the series) unless noted
[10] = qHTS assay to identify small molecule antagonists of the vitamin D receptor (VDR) signaling pathway - cell viability counter screen (AID 743225); details: VDR-bla HEK293T viability, CellTiter-Glo luminescence, 16 h; viability change, negative = cytotoxic: at 61 µM (top of the series) unless noted; further: nearly all actives have a fitted effect of over 50% in size; further: potency means the concentration at half of the fitted maximal effect
Outline: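 In this counter screen, VDR-bla HEK 293T cells receive test compound plus 3 nM final calcitriol for 16 h at 37C. Room-temperature steps of 2 h with the beta-lactamase substrate, then 30 min with CellTiter-Glo, precede the luminescence read.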

[11] = biological target: Estrogen receptor beta (Homo sapiens) (UniProt Q92731); assay: qHTS assay to identify small molecule antagonists of the estrogen receptor beta (ER-beta) signaling pathway (AID 1259378; active means well fitted inhibition curve with a large enough effect in the signal ratio in the repeat runs, not every such curve was filed as active; inconclusive means weak or mixed curves, or effect the other way; inactive means no such curve, though single readings can be large or run the other way; the % refers to the signal ratio; further: on the % scale 0 is the no-effect control and ±100 the full control effect); details: ER-beta-UAS-bla HEK293T, beta-lactamase FRET ratio, 16 h; activity, negative = inhibition: at 92.4 µM (top of the series) unless noted
Outline: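 ER-beta-UAS-bla HEK293T (GripTite) cells in 2% charcoal-stripped FBS medium were preincubated 6 hr at 37C, dosed with compound, then stimulated with 1 nM E2 (final) for 16 hr; beta-lactamase reporter read by B/G FRET fluorescence after 2 hr substrate loading.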

[12] = qHTS assay to identify small molecule antagonists of the estrogen receptor alpha (ER-alpha) signaling pathway using the BG1 cell line (AID 743080; calls by dose curve;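 further: BG1 cells stimulated with 17beta-estradiol alongside compound; nearly all actives have a fitted effect of over 25% in size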; further: potency means the concentration at half of the fitted maximal effect); details: BG1Luc4E2 ERE-luciferase antagonist mode, luminescence; activity change, negative = inhibition: at 70.3 µM (top of the series) unless noted
Outline: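 Luciferase inhibition measured with ONE-Glo after 30 min at RT in BG1Luc4E2 cells given test compounds and 17beta-estradiol for 21.5 h at 37 C; CellTiter-Fluor viability read in the same wells beforehand.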

[13] = qHTS assay to identify small molecule antagonists of the sonic hedgehog signaling (Shh) pathway (AID 1259369; calls by dose curve; further: nearly all actives have a fitted effect of over 45% in size; further: potency means the concentration at half of the fitted maximal effect)
Outline: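 NIH/3T3 stable Gli1-Luc clone, 2,000 cells/well, 4hr settle; cpd + conditioned medium 24hr; Luc reagent 30min RT; luminescence.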

[14] = biological target: Estrogen receptor (Homo sapiens) (UniProt P03372); assay: qHTS assay to identify small molecule antagonists of the estrogen receptor alpha (ER-alpha) signaling pathway (AID 743069; active means well fitted curve in the direction sought with a large enough effect in the signal ratio in the repeat runs, not every such curve was filed as active; inconclusive means weak or mixed curves, or effect the other way; inactive means no such curve, though single readings can be large or run the other way; the % refers to the signal ratio; further: on the % scale 0 is the no-effect control and ±100 the full control effect); details: HEK293 ER-alpha-UAS-bla, beta-lactamase ratio, antagonist mode; activity, negative = inhibition: at 69.4 µM (top of the series) unless noted
Outline: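 A 17beta-estradiol challenge was applied right after compound transfer to ER-alpha-UAS-bla HEK293 cells previously kept in charcoal-stripped serum. Plates stood 18 hr at 37C and 5% CO2; fluorescence was read following 2 hr FRET substrate loading at room temperature.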

[15] = A CellTox Green Cytotoxicity Assay to monitor cytotoxicity in HepG2 cells - 40 hour (AID 1224879); further: nearly all actives have a fitted effect of over 40% in size; further: potency means the concentration at half of the fitted maximal effect
Outline: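 Measurements at 0, 8, 16, 24, 32 and 40 h of treatment captured CellTox Green fluorescence in HepG2 cells that had been co-plated with reagent and preincubated 5 h at 37 C/5% CO2.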

[16] = biological target: Progesterone receptor (Homo sapiens) (UniProt P06401); assay: qHTS assay to identify small molecule agonists of the progesterone receptor (PR) signaling pathway (AID 1346784; calls by dose curve; further: nearly all actives have a fitted effect of over 30% in size; further: potency means the concentration at half of the fitted maximal effect); details: PR-UAS-bla HEK293T, beta-lactamase FRET ratio, 16 h; activation: at 92.4 µM (top of the series) unless noted
Outline: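 Using charcoal-stripped serum (2%) to limit endogenous steroids, PR-UAS-bla HEK 293T cells received compounds for 16 hr at 37C after 6 hr plating; beta-lactamase FRET fluorescence was recorded following 2 hr substrate loading at room temperature.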

[17] = biological target: Peroxisome proliferator-activated receptor gamma (Homo sapiens) (UniProt P37231); assay: qHTS assay to identify small molecule agonists of the peroxisome proliferator-activated receptor gamma (PPARg) signaling pathway (AID 743094; active means well fitted activation curve with a large enough effect in the signal ratio in the repeat runs, not every such curve was filed as active; inconclusive means weak or mixed curves, or effect the other way; inactive means no such curve, though single readings can be large or run the other way; the % refers to the signal ratio; further: potency means the concentration at half of the fitted maximal effect); details: HEK293H PPARg-UAS-bla, beta-lactamase FRET ratio, 17 h; activation: at 57 µM (top of the series) unless noted
Outline: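 Fluorescence-based beta-lactamase readout in HEK293H PPARg UAS-bla cells after 17 h compound exposure (37C) and 1 h B/G FRET substrate incubation at room temperature.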

[18] = qHTS assay for identifying genotoxic compounds that show differential cytotoxicity against isogenic chicken DT40 cell lines with known DNA damage response pathways - Rad54/Ku70 mutant cell line (AID 743015); details: DT40 Rad54/Ku70 mutant viability, CellTiter-Glo, 40 h; activity change, negative = cytotoxicity: at 66.8 µM (top of the series) unless noted; further: nearly all actives have a fitted effect of over 60% in size; further: potency means the concentration at half of the fitted maximal effect
Tags describe the fitted curve by direction and shape or compound fluorescence and quenching.

Sequence of UniProt Q92731 (Q92731 whole entry, looked up): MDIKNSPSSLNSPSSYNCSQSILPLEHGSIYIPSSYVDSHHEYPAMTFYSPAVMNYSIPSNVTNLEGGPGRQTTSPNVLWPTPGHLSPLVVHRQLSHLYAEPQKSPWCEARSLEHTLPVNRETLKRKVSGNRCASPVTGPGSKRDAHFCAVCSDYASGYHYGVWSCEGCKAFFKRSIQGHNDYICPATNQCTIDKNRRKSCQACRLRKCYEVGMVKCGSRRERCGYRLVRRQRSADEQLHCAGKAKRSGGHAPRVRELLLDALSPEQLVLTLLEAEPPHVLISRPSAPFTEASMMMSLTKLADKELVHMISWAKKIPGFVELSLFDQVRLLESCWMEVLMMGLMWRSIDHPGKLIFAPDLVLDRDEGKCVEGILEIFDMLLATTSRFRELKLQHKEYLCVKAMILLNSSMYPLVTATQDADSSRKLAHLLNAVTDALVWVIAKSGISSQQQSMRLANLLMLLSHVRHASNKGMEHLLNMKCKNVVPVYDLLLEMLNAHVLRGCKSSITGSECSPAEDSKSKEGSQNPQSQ
Sequence of UniProt P06401 (P06401 whole entry, looked up): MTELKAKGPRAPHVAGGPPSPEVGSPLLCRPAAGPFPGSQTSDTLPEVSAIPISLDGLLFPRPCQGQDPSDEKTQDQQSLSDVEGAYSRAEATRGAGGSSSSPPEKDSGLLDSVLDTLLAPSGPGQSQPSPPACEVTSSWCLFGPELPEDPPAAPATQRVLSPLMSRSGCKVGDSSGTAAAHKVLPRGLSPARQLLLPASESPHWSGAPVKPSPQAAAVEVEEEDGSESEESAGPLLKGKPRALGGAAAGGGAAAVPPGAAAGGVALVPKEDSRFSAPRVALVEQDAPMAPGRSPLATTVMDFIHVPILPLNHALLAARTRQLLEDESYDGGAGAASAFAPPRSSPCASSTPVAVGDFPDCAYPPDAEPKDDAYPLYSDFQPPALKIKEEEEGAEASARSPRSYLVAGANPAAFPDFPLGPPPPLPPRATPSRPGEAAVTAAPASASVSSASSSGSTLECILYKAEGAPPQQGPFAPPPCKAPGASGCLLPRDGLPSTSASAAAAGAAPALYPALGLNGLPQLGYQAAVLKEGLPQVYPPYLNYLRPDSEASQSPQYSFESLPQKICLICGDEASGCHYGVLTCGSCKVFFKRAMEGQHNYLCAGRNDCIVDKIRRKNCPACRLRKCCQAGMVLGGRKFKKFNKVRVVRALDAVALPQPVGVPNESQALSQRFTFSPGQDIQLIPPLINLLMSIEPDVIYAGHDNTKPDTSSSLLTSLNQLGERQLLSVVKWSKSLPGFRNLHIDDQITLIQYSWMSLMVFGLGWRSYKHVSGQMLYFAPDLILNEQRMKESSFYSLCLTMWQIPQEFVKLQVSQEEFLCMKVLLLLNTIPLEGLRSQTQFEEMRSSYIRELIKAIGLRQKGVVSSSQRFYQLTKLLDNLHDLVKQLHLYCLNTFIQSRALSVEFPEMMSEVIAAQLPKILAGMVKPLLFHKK
Sequence of UniProt P10635 (P10635 whole entry, looked up): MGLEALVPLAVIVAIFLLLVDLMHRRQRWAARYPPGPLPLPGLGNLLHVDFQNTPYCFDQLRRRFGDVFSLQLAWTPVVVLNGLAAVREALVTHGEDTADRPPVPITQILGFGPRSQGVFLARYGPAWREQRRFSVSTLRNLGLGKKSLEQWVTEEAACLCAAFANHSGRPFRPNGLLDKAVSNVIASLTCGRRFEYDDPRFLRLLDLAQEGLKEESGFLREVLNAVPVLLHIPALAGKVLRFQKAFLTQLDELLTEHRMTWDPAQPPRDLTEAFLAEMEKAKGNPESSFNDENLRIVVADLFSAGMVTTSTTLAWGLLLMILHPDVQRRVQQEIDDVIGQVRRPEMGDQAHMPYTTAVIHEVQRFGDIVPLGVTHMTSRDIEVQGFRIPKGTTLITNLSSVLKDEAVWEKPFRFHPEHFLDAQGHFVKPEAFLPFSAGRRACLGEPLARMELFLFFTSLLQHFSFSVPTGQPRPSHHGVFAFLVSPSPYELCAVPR
Sequence of UniProt P03372 (P03372 whole entry, looked up): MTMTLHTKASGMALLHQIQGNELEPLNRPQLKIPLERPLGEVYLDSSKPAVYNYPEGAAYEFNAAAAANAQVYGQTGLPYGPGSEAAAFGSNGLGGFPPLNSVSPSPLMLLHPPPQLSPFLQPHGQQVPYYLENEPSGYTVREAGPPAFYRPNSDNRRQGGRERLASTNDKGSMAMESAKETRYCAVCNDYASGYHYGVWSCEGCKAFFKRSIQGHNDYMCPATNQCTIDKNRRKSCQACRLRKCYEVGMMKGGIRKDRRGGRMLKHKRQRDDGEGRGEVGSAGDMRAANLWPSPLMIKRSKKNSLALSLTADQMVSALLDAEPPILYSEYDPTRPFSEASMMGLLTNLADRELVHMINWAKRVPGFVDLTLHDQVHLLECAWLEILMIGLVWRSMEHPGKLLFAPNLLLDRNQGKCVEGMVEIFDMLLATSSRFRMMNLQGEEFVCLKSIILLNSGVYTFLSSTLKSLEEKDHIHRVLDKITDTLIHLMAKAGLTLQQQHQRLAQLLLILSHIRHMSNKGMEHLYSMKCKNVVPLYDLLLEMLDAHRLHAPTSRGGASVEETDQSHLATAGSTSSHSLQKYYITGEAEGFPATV
Sequence of UniProt P37231 (P37231 whole entry, looked up): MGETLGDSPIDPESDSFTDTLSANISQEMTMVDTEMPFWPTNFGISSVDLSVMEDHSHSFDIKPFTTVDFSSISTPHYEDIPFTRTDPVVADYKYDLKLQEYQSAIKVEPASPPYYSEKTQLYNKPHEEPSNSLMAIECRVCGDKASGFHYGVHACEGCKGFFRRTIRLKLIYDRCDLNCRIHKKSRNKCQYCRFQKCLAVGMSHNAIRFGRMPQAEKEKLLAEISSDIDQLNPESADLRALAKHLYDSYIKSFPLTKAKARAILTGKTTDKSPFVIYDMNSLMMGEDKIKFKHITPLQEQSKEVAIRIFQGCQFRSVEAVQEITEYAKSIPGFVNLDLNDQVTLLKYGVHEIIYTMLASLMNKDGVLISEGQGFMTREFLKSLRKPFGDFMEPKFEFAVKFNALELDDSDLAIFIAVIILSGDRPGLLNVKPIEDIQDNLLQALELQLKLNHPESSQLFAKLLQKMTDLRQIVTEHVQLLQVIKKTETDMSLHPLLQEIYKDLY

Structure (SMILES): CNC(=O)[C@H]1O[C@@H](n2cnc3c(NCc4cc(Cl)ccc4OCc4cc(C)no4)ncnc32)[C@H](O)[C@@H]1N
- Potency [1]: inactive

Structure (SMILES): Cn1cc(S(C)=O)c(=O)c2ccc(F)cc21 (centres undefined)
- Potency [2]: inactive
- Potency [3]: inactive

Structure (SMILES): CC(C)=CCCC(C)CCOC(=O)C(C)C (centres undefined)
- Potency [4]: inactive
- Potency [5]: inactive

Structure (SMILES): CC(O)COC(C)(C)C (centres undefined)
- Potency [6]: inactive
- Potency [5]: inactive
- Potency [7]: inconclusive [inhibitor, partial curve]

Structure (SMILES): O=C(OOC(=O)c1ccccc1)c1ccccc1
- Potency [8]: inconclusive [rising, full curve]
- Potency [2]: inconclusive [falling, single point]
- Potency [7]: inactive

Structure (SMILES): CCCCS
- Potency [9]: inconclusive [cytotoxic, partial curve, poor fit]
- Potency [1]: inconclusive [activator, single point]
- Potency [4]: inactive
- Potency [3]: inactive

Structure (SMILES): C[Si](C)(C)N[Si](C)(C)C
- Potency [10]: inactive
- activation [4]: inconclusive: 12.1%
- activity, negative = inhibition [11]: inconclusive: -15.7%

Structure (SMILES): CCN(CC)S(=O)(=O)c1ccc(C(=O)O)cc1
- Potency [12]: inactive
- Potency [2]: inconclusive [rising, single point]
- Potency [1]: inconclusive [activator, single point]
- Potency [13]: inactive

Structure (SMILES): CC/C=C\C#N
- Potency [14]: inactive
- Potency [8]: inactive
- Potency [13]: inconclusive [inhibitor, full curve, poor fit]

Structure (SMILES): O=C(Cn1ccnc1[N+](=O)[O-])NCc1ccccc1
- Potency [6]: inactive
- Potency [10]: inconclusive [rising, full curve, poor fit]
- Potency [13]: inactive
- Potency [7]: inconclusive [inhibitor, full curve]

Structure (SMILES): O=C1NC(c2ccccc2)(c2ccccc2)C(=O)N1COP(=O)(O)O
- Potency [6]: inconclusive [rising, partial curve]
- Potency [10]: inactive
- Potency [13]: inactive

Structure (SMILES): CC1=CC[C@H](CC=O)C1(C)C
- Potency [8]: inactive

Structure (SMILES): CC(C)(CCC(=O)O)C(=O)O
- Potency [15]: inactive
- Potency [16]: inactive

Structure (SMILES): O=C(O)CCCCCCCCC(=O)O
- Potency [5]: inconclusive [cytotoxic, partial curve]

Structure (SMILES): CC(=O)OCC(=O)[C@@]1(O)CCC2C3CCC4=CC(=O)CC[C@]4(C)C3[C@@H](O)C[C@@]21C (some centres undefined)
- Potency [17]: inactive
- Potency [2]: active: 8.49 µM
- Potency [16]: inconclusive [activator]
- Potency [7]: inconclusive [inhibitor, partial curve]

Structure (SMILES): CCc1cccc(CC)c1N
- activation [4]: inconclusive: 13.5%
- activity, negative = inhibition [11]: inconclusive: 11.9%
- Potency [7]: inactive

Structure (SMILES): O=P(O)(O)OP(=O)(O)O
- Potency [18]: active: 11.9 µM
- Potency [13]: inactive
- Potency [4]: inactive

Structure (SMILES): CCOc1ccccc1OCCN[C@H](C)Cc1ccc(OC)c(S(N)(=O)=O)c1
- Potency [17]: inconclusive [rising, partial curve, poor fit]
- Potency [8]: inactive
- Potency [13]: inconclusive [inhibitor, single point]
- Potency [7]: active: 12.3 µM

Structure (SMILES): C[C@H](O)C(=O)Nc1c(I)c(C(=O)NC(CO)CO)c(I)c(C(=O)NC(CO)CO)c1I
- Potency [9]: inconclusive [cytotoxic, full curve, poor fit]
- Potency [14]: inactive
- Potency [12]: inconclusive [rising, single point]
- Potency [6]: inconclusive [rising, partial curve, poor fit]
- Potency [16]: inactive
- Potency [3]: inactive

Structure (SMILES): Cc1cc(N)no1
- Potency [15]: inactive

Structure (SMILES): C[C@H](N)[C@H](O)c1cccc(O)c1
- Potency [7]: inconclusive [inhibitor, partial curve, poor fit]

Structure (SMILES): CN(C)CCCN(C)C
- Potency [10]: inconclusive [rising, single point]
- Potency [15]: inconclusive [activator, single point]
- activity change [1]: inactive: -1.52% [at 6.97 µM, hits give high values]
- activation [4]: inactive: -0.616% [at 8.39 µM]

Structure (SMILES): CCCc1ncc(C(=O)O)s1
- Potency [16]: inactive
- Potency [3]: inactive

Structure (SMILES): NC(=O)c1c(Cl)cccc1Cl
- Potency [18]: inactive
- Potency [12]: inactive

Structure (SMILES): C/C=C/c1ccc(OC)c(OC)c1
- Potency [2]: inactive

Structure (SMILES): c1ccc2nccnc2c1
- activity, negative = inhibition [11]: inconclusive: 7.45%
- Potency [3]: inconclusive [rising, partial curve, poor fit]

Structure (SMILES): CCCCO
- Potency [3]: inactive

Structure (SMILES): CCCC(C)C(O)CC (centres undefined)
- Potency [18]: inactive
- Potency [11]: inactive
- Potency [3]: inconclusive [cytotoxic, single point]

Structure (SMILES): CO/N=C(/C(=O)N[C@@H]1C(=O)N2C(C(=O)[O-])=C(C[n+]3ccn4ncccc43)CS[C@H]12)c1nsc(N)n1
- Potency [11]: inactive
